# Results published in PubChem BioAssay (NCATS).
# Inconclusive means that the source gave no clear call. Such entries were picked first, then a sample of the others. For part of these data: No potency is given beside an inconclusive call; the fits are too rough. The source made the active and inactive calls. Unless noted, calls follow the shape of the dose curve; as a rule, active = well fitted curve in the direction sought with a large enough effect; inconclusive = small, poorly fitted or top-dose-only effect, or another doubt; inactive = no such curve, though single readings can be large; an effect the other way counts as inactive or inconclusive.
# How the values were obtained:
# [1] = tested on: Zika virus NS2B-NS3 protease (linked construct); assay: Primary screen NINDS Rhodamine qHTS for Zika virus inhibitors (AID 1347160); also: potency is read from the fitted curve at half-maximal effect; nearly all actives have a fitted effect of over 55% in size
# Outline: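 Purified linked NS2B-NS3 protease (NS2B hydrophilic domain joined to NS3 protease by flexible linker), 25 nM in 10 mM Tris-HCl pH 8.0, 0.01% Tween 20. Compounds titrated, 15 min preincubation at room temperature; 1.5 microM Rhodamine110 substrate, FITC fluorescence change over 15 min.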
# [2] = Primary qHTS for inhibitors of nuclear receptor binding SET domain protein 2 (NSD2) in an isogenic RCH-ACV NSD2 p.E1099K mutant (9B) (AID 1645876); conditions: activity change, negative = viability loss: at 44.9 µM (top of the series) unless noted; also: nearly all actives have a fitted effect of over 70% in size; also: potency is read from the fitted curve at half-maximal effect
# [3] = Primary qHTS for inhibitors of nuclear receptor binding SET domain protein 2 (NSD2) in an RCH-ACV wild type WT cells (2C) (AID 1645877); conditions: activity change, negative = cell killing: at 44.9 µM (top of the series) unless noted; also: nearly all actives have a fitted effect of over 70% in size; also: potency is read from the fitted curve at half-maximal effect
# [4] = tested on: Es-2; assay: Primary qHTS to identify gynecologic anti-cancer compounds using libraries of approved drugs and bioactive compounds (AID 1345084); conditions: Gynecologic cancer cell panel viability, ATPlite luminescence, 48 h; series mostly up to 57.5 µM; also: nearly all actives have a fitted effect of over 55% in size; also: potency is read from the fitted curve at half-maximal effect; as to activity change, negative = cytotoxicity: % is scaled to controls: 0 for no effect and ±100 for the full control effect
# Outline: (§1)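 Luminescence from the ATPlite ATP-monitoring reagent indicates viable cell number; lower signal means cytotoxicity. Cells received compound 16 h after seeding and were exposed for 48 h across five concentrations.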
# [5] = tested on: JEG-3; assay: as above; conditions: Gynecologic cancer cell panel viability, ATPlite luminescence, 48 h; series mostly up to 57.5 µM
# Outline: as §1
# [6] = tested on: Zika virus NS2B-NS3 protease (unlinked complex); assay: Primary screen GU Rhodamine qHTS for Zika virus inhibitors: Unlinked NS2B-NS3 protease assay (AID 1347159); conditions: Recombinant ZIKV NS2B-NS3 protease, Rhodamine110 substrate fluorescence; activity change, negative = inhibition: at 107 µM (top of the series); also: nearly all actives have a fitted effect of over 60% in size; also: potency is read from the fitted curve at half-maximal effect
# Outline: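 Noncovalent NS2B hydrophilic domain–NS3 protease domain complex (25 nM) preincubated 15 min at room temperature with compounds (up to 114 microM) in 10 mM Tris-HCl pH 8.0, 0.01% Tween 20; 1.5 microM Rhodamine110 substrate added, fluorescence change over 15 min fitted to Hill equation.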
# [7] = molecular target: Cytochrome P450 2C9 (Homo sapiens) (UniProt P11712); assay: Cytochrome P450 family 2 subfamily C member 9 (CYP2C9) small molecule antagonists: luciferase biochemical (cell-free) qHTS assay (AID 1645842; active = well fitted curve in the direction sought with a large enough effect in the repeat runs; inconclusive = weak or mixed curves; inactive = no such curve, though single readings can be large; an effect the other way counts as inactive or inconclusive)
# UniProt P11712, sequence (P11712 whole entry, looked up): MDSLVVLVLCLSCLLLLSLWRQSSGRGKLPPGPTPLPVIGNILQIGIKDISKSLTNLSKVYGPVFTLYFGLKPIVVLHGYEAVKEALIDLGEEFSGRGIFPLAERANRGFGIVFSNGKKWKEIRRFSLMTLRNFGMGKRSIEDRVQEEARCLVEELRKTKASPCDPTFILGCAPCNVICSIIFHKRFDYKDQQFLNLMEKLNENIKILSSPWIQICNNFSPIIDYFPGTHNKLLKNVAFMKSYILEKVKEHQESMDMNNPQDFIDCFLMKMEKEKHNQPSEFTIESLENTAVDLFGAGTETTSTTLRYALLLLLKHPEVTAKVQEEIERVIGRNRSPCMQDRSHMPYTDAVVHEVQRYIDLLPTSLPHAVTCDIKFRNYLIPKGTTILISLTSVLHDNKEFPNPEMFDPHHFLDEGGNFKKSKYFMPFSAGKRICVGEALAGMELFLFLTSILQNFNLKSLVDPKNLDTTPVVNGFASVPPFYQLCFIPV
# Outline: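 Luminescence, after 20 min with luciferin detection reagent, reflected CYP2C9 turnover during a 1 h NADPH-driven reaction at 37C. Enzyme-substrate mix contained 0.4% bovine serum albumin and was preincubated with compound 10 min at room temperature.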
# [8] = molecular target: Glutathione peroxidase 1 (Homo sapiens) (UniProt P07203); assay: Primary qHTS Assay for Inhibitors of Recombinant Selenoprotein Glutathione Peroxidase 1 (GPX1) (AID 1845191); also: potency is read from the fitted curve at half-maximal effect; nearly all actives have a fitted effect of over 65% in size
# UniProt P07203, sequence (P07203 whole entry, looked up): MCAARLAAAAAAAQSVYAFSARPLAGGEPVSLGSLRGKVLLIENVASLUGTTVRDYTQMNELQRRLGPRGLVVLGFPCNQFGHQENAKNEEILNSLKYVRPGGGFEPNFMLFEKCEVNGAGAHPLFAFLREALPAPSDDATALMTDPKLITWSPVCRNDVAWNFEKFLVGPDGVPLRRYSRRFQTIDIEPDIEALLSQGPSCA
# Outline: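 GR-coupled assay: compounds preincubated 30 min at room temperature with GPX1, then reaction started with CHP; final 10 nM GPX1, 1 mM GSH, 0.5 mM CHP, 0.5 mM NADPH, 100 nM GR, 0.01% BSA, pH 7.5 Tris buffer. NADPH fluorescence (340/450 nm) read at 0 and 15 min.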
# [9] = Primary redox qHTS assay for identification of artifact compounds. (AID 1845223); also: potency is read from the fitted curve at half-maximal effect
# Outline: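 Amplex Red (25 uM) and HRP (250 mU/mL) in HBSS, with compounds for 15 min, then 250 uM DTT for 30 min, room temperature, dark. Fluorescence 525/598 nm read; normalized to DMSO and 10 uM DA3003; Hill fit.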
# [10] = tested on: HeLa; assay: Primary qHTS to identify gynecologic anti-cancer compounds using libraries of approved drugs and bioactive compounds (AID 1345084); conditions: Gynecologic cancer cell panel viability, ATPlite luminescence, 48 h; series mostly up to 57.5 µM; also: nearly all actives have a fitted effect of over 55% in size; also: potency is read from the fitted curve at half-maximal effect; as to activity change, negative = cytotoxicity: % is scaled to controls: 0 for no effect and ±100 for the full control effect
# Outline: as §1
# [11] = tested on: Zika virus NS2B-NS3 protease (linked construct); assay: Confirmatory screen NINDS AMC qHTS for Zika virus inhibitors (AID 1347152); also: potency is read from the fitted curve at half-maximal effect; nearly all actives have a fitted effect of over 70% in size
# Outline: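 IC50s from 4-parameter Hill fits of percent inhibition, based on AMC fluorescence gain (340/450 nm) over 15 min with 10 microM Bz-Nle-KRR-AMC. Enzyme: 1 nM linked NS2B-NS3 in Tris-HCl pH 8.0; 15-min compound preincubation.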
# [12] = tested on: Zika virus NS2B-NS3 protease (unlinked complex); assay: Confirmatory screen GU AMC qHTS for Zika virus inhibitors (AID 1347153);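 also: enzyme at 25 nM with substrate at 10 µM below its Km of 18.3 µM; potency is read from the fitted curve at half-maximal effect; nearly all actives have a fitted effect of over 70% in size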
# Outline: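 Noncovalent NS2B hydrophilic domain/NS3 protease complex (25 nM) in 10 mM Tris-HCl pH 8.0, 0.01% Tween 20 was preincubated 15 min at room temperature with compounds. Then 10 µM AMC substrate (Km 18.3 µM) was added; fluorescence was read over 15 min and fitted to a 4-parameter Hill equation.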
# [13] = Confirmatory screen NINDS Rhodamine qHTS for Zika virus inhibitors (AID 1347161); also: potency is read from the fitted curve at half-maximal effect; nearly all actives have a fitted effect of over 60% in size
# Outline: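 qHTS dose-response: 25 nM linked protease, pH 8.0 Tris/Tween buffer, cpd titration, 15 min RT preinc, 1.5 microM Rhod110 peptide, 15 min reaction (~15% conversion), Ex480/Em540; 4-parameter Hill fit.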
# [14] = Tertiary RLuc qRT-PCR qHTS assay for Zika virus inhibitors (AID 1347169)
# Outline: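 Orthogonal cell-based readout: luminescence measured 1-1.5 hrs after adding live-cell Renilla substrate to Vero cells that had been infected with ZIKV-RLuc (MOI 1-2) post-compound, incubated 48-72 hrs at 37 degrees C.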
# [15] = Primary fluorescence-based thiol-reactive (MSTI) qHTS assay for identification of artifact compounds. (AID 1845221);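 also: potency is read from the fitted curve at half-maximal effect; thiol-reactive compounds lower the probe fluorescence signal; nearly all actives have a fitted effect of over 65% in size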
# Outline: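 Compounds were incubated 1 h at room temperature in the dark with the MSTI probe (4 uM) in PBS pH 7.4, 2% DMSO. Signals were normalized between Acetyl-MSTI and MSTI.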
# [16] = tested on: Hek293T; assay: Primary qHTS to identify gynecologic anti-cancer compounds using libraries of approved drugs and bioactive compounds (AID 1345084); conditions: Gynecologic cancer cell panel viability, ATPlite luminescence, 48 h, control line for the selectivity index; series mostly up to 57.5 µM; also: nearly all actives have a fitted effect of over 55% in size; also: potency is read from the fitted curve at half-maximal effect; as to activity change, negative = cytotoxicity: % is scaled to controls: 0 for no effect and ±100 for the full control effect
# Outline: as §1
# [17] = tested on: SKOV3; assay: as above; conditions: Gynecologic cancer cell panel viability, ATPlite luminescence, 48 h; series mostly up to 57.5 µM
# Outline: as §1
# [18] = tested on: Tov-21-G; assay: as above; conditions: Gynecologic cancer cell panel viability, ATPlite luminescence, 48 h; series mostly up to 57.5 µM
# Outline: as §1
# [19] = molecular target: Phospholipid hydroperoxide glutathione peroxidase GPX4 (Homo sapiens) (UniProt P36969); assay: Primary qHTS Assay for Inhibitors of Recombinant Selenoprotein Glutathione Peroxidase 4 (GPX4) (AID 1845192); conditions: activity change, negative = inhibition: at 50 µM (top of the series) unless noted; also: potency is read from the fitted curve at half-maximal effect; nearly all actives have a fitted effect of over 65% in size
# UniProt P36969, sequence (P36969 whole entry, looked up): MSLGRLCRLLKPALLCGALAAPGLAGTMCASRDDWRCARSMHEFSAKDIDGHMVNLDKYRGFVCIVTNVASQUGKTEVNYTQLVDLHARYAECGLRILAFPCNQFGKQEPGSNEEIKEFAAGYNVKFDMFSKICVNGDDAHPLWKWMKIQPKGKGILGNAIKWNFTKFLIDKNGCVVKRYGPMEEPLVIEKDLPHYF
# Outline: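 GR-coupled assay: recombinant GPX4 preincubated 30 min with compound at room temperature; final 200 nM GPX4, 1 mM GSH, 0.5 mM cumene hydroperoxide, 0.5 mM NADPH, 100 nM GR, 0.01% BSA, pH 7.5 Tris. NADPH fluorescence (340/450 nm) read at 0 and 15 min.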
# [20] = molecular target: Calcium and integrin-binding protein 1 (Homo sapiens) (UniProt Q99828); assay: Primary qHTS for Identification of Calcium Integrin Binding Protein 1 (CIB1) Competitor (AID 1508620);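 also: GST tagged CIB1 binding a fluorescein labelled alphaIIb integrin peptide tracer; top concentration of the series differs between compounds; % is scaled to controls: 0 for no effect and ±100 for the full control effect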
# UniProt Q99828, sequence (Q99828 whole entry, looked up): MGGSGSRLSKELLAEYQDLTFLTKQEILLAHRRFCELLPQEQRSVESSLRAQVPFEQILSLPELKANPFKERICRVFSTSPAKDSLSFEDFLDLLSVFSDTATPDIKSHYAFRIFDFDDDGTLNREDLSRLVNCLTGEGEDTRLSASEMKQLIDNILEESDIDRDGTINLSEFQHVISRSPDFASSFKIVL
# Outline: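 Fluorescence polarization competition: GST-tagged CIB1 (1 uM final) preincubated with compound 15 min at room temperature, then FITC-labelled alphaIIb peptide (100 nM final) added. After 15 min at room temperature, polarization read at Ex 480/Em 540.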
# [21] = tested on: CASKI; assay: Primary qHTS to identify gynecologic anti-cancer compounds using libraries of approved drugs and bioactive compounds (AID 1345084); conditions: Gynecologic cancer cell panel viability, ATPlite luminescence, 48 h; series mostly up to 57.5 µM; also: nearly all actives have a fitted effect of over 55% in size; also: potency is read from the fitted curve at half-maximal effect
# Outline: as §1
# [22] = molecular target: Luciferin 4-monooxygenase (Photinus pyralis) (UniProt P08659); assay: Primary firefly luciferase (FLuc) qHTS assay for identification of artifact compounds. (AID 1845220); also: nearly all actives have a fitted effect of over 60% in size; also: potency is read from the fitted curve at half-maximal effect
# Outline: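 D-luciferin and ATP (10 uM each, final) in Tris acetate buffer pH 7.6 were incubated with compounds for 15 min at room temperature. The reaction was started with 10 nM Photinus pyralis luciferase and luminescence read after 5 min. Percent inhibition was fitted to a 4-parameter Hill equation.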
# [23] = P-glycoprotein substrates identified in KB-8-5-11 adenocarcinoma cell line, qHTS therapeutic library screen (AID 1346987); conditions: activity change, negative = cytotoxicity: at 44.5 µM (top of the series); also: % is scaled to controls: 0 for no effect and ±100 for the full control effect; nearly all actives have a fitted effect of over 65% in size
# Outline: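 KB-8-5-11: colchicine-selected sub-line of KB-3-1 over-expressing P-gp; assay medium lacked colchicine. 72 h drug exposure at 37 degree C, CellTiter-Glo.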
# [24] = molecular target: Cytochrome P450 2D6 (Homo sapiens) (UniProt P10635); assay: Cytochrome P450 family 2 subfamily D member 6 (CYP2D6) small molecule antagonists: luciferase biochemical (cell-free) qHTS assay (AID 1645840; active = well fitted curve in the direction sought with a large enough effect in the repeat runs; inconclusive = weak or mixed curves; inactive = no such curve, though single readings can be large; an effect the other way counts as inactive or inconclusive)
# UniProt P10635, sequence (P10635 whole entry, looked up): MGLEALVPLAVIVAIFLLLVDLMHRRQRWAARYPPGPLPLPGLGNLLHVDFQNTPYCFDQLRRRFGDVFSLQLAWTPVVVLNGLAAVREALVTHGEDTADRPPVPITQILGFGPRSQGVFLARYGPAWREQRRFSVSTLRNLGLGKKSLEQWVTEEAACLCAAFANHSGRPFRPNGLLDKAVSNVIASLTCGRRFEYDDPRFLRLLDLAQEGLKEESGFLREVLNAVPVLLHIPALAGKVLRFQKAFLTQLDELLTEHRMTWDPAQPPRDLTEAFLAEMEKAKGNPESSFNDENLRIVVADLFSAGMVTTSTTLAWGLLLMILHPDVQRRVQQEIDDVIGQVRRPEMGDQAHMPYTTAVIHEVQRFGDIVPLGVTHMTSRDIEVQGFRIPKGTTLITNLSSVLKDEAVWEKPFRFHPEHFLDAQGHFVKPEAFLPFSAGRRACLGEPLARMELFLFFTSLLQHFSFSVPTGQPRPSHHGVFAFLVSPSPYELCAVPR
# Outline: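 P450-Glo luminescent screen: recombinant CYP2D6 enzyme–proluciferin substrate mix preincubated with compound 10 min at room temperature, then NADPH regeneration added for 1 h at room temperature. Detection reagent added for 20 min; luciferin light read as relative luminescence units.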
# [25] = tested on: OV90; assay: Primary qHTS to identify gynecologic anti-cancer compounds using libraries of approved drugs and bioactive compounds (AID 1345084); conditions: Gynecologic cancer cell panel viability, ATPlite luminescence, 48 h; series mostly up to 57.5 µM; also: nearly all actives have a fitted effect of over 55% in size; also: potency is read from the fitted curve at half-maximal effect
# Outline: as §1
# Tags tell the direction and shape of the fitted curve.
smiles,measurement,setting,value
CCOc1ccc(-c2nn3ncccc3c2-c2ccc(S(C)(=O)=O)cc2)cc1,Potency,[1],"inconclusive [inhibitor, full curve, poor fit]"
same,Potency,[2],"inconclusive [inhibitor, partial curve]"
same,Potency,[3],"inconclusive [inhibitor, partial curve]"
same,Potency,[4],inactive
same,Potency,[5],"inconclusive [rising, single point]"
Cc1ccc2c(c1)C=Cc1cc(C)ccc1C2c1cn(Cc2ccc(C(=O)Nc3nn[nH]n3)o2)c(=O)[nH]c1=S,Potency,[6],active: 3.16 µM
same,Potency,[1],"inconclusive [inhibitor, full curve]"
same,Potency,[7],"inconclusive [inhibitor, single point]"
same,Potency,[8],"inconclusive [inhibitor, partial curve]"
same,Potency,[9],"inconclusive [activator, partial curve, poor fit]"
same,Potency,[4],inactive
same,Potency,[10],inactive
CC(C)CC(c1c(O)c(C=O)c(O)c(C=O)c1O)C1CCC(C)(O)C2CC(C(C)(C)O)CCC12C (stereo not drawn),Potency,[11],"inconclusive [inhibitor, partial curve]"
same,Potency,[12],"inconclusive [inhibitor, partial curve]"
same,Potency,[6],"inconclusive [inhibitor, full curve, poor fit]"
same,Potency,[13],active: 3.41 µM
same,Potency,[14],inactive
same,Potency,[3],inactive
same,Potency,[15],active: 4.12 µM
same,Potency,[9],"inconclusive [activator, full curve]"
same,Potency,[4],inactive
same,Potency,[16],inactive
same,Potency,[17],inactive
CC(C)CC1NC(=O)C(C)NC(=O)C(CC(C)C)OC(=O)CCCNC1=O (stereo not drawn),Potency,[8],"inconclusive [inhibitor, single point]"
same,Potency,[9],"inconclusive [activator, partial curve, poor fit]"
same,Potency,[4],inactive
same,Potency,[5],inactive
same,Potency,[18],inactive
COc1c(N2CC3CCCNC3C2)c(F)cc2c(=O)c(C(=O)O)cn(C3CC3)c12 (stereo not drawn),Potency,[6],inactive
same,Potency,[19],"inconclusive [inhibitor, single point]"
same,Potency,[4],inactive
same,Potency,[5],inactive
same,Potency,[17],inactive
same,Potency,[18],inactive
C=C(C)[C@H]1C[C@@H](O)C(=C)CC[C@@H](O)C(=C)[C@@H](O)C1,Potency,[20],inactive
same,Potency,[3],inactive
same,Potency,[21],inactive
C/C(=C\C1CCC(C)C2CCC3(C)OC123)C(=O)O (stereo not drawn),Potency,[6],"inconclusive [inhibitor, partial curve, poor fit]"
same,Potency,[1],"inconclusive [inhibitor, single point]"
same,Potency,[22],inactive
same,Potency,[15],"inconclusive [inhibitor, partial curve]"
same,Potency,[9],"inconclusive [activator, partial curve, poor fit]"
same,Potency,[21],inactive
CC1(C)CC[C@]2(C(=O)O[C@@H]3O[C@H](CO)[C@@H](O)[C@H](O)[C@H]3O)CC[C@]3(C)C(=CCC4[C@@]5(C)C[C@@H](O)[C@H](O)[C@@](C)(CO)C5CC[C@]43C)C2[C@@H]1O (stereo partly drawn),Potency,[6],active: 10 µM
same,Potency,[1],"inconclusive [inhibitor, single point]"
same,Potency,[4],"inconclusive [cytotoxic, single point]"
same,Potency,[10],inactive
C[C@@H]1O[C@@H](O[C@H]2[C@H](O[C@H]3CC[C@@]4(C)C(CC[C@]5(C)C4CC=C4[C@@H]6CC(C)(C)CC[C@]6(C(=O)O)CC[C@]45C)[C@]3(C)CO)OC[C@H](O)[C@@H]2O)[C@H](O)[C@H](O[C@@H]2OC[C@@H](O)[C@H](O)[C@H]2O)[C@H]1O (stereo partly drawn),Potency,[6],inactive
same,Potency,[2],"inconclusive [inhibitor, single point]"
same,Potency,[3],"inconclusive [inhibitor, single point]"
same,"activity change, negative = cytotoxicity",[4],inactive: -1.5% [at 11.6 µM]
same,"activity change, negative = cytotoxicity",[10],inactive: 14.3% [at 11.6 µM]
CCCOC(c1cc2nccc(C(=O)O)c2[nH]1)c1ccccc1Cl (stereo not drawn),Potency,[2],inactive
same,Potency,[21],inactive
CCOC(=O)c1ccc(NC2CCCCC2)c(N)c1,Potency,[23],inactive
same,Potency,[24],active: 9.52 µM
same,Potency,[2],"inconclusive [inhibitor, partial curve]"
same,Potency,[3],"inconclusive [inhibitor, partial curve]"
same,Potency,[22],"inconclusive [inhibitor, partial curve]"
same,Potency,[15],"inconclusive [inhibitor, single point]"
same,Potency,[4],inactive
same,Potency,[25],inactive
same,Potency,[17],"inconclusive [rising, single point]"
